Experimental data: the RNAGym collection of RNA variant scans (doi:10.7554/elife.90254)
The source gives no read counts; variants with many changes may rest on few reads.

B1: LINE1-full (parent)
chain: UACGUAGGUGGUUUUCCCCUGAUAGUGCUAAGGGGGCCUGGAAGUUUGGACUGGGCAGAGCUCAACACAGCGUGGCAAAGUGGCUGUGGCUAGACUGCCUCUCUGGAUUCCUCGUCACUCAGCAGGGCAUCUCUGAGAGAAAUGCC

Variants of: B1
Experiment: self-cleavage, relative activity (ratio to wild type); higher = more cleavage; in vitro, sequencing; the parent is a self-cleaving ribozyme
A57U U62A A78G G135A showed a self-cleavage of 0.05. With A65U U73C A121G the self-cleavage was 0.3. Variant U13A U91C U102C has a self-cleavage of 0. With U112C U115C A142G the self-cleavage was 0.49. For A30G U73A U102G, the self-cleavage was 0.15. Work on U62A U85A A121G yielded a self-cleavage of 0.05. U13A U87A A124U gave a self-cleavage of 0.07. U14C G105C C120A A136G showed a self-cleavage of 1.33. U62C U91C U109C U119A showed a self-cleavage of 0. For U20C G21A U87G, the self-cleavage was 0.13. With G11A U20C A124U the self-cleavage was 1.89. In the case of A2G U14C U115C, the self-cleavage is reported as 0.27. G82A G93A G144A showed a self-cleavage of 0.05. For U46C U52A U143A, the self-cleavage was 1. Variant U81C C90U A138C has a self-cleavage of 0.06. Work on C19U A64G U132C yielded a self-cleavage of 0.11. Variant A24U U47C A57U U73A has a self-cleavage of 0.19. U47C A69G U96A C123U U130C A138G gave a self-cleavage of 0.08. Variant U13A A22G G41A A77G has a self-cleavage of 1.45. G106U U109C A121U showed a self-cleavage of 1.07. In the case of U1C G93A A141G, the self-cleavage is reported as 0.04. Variant C63A A65G U130C has a self-cleavage of 0.11. For A31G U39C G54U U108C A142G, the self-cleavage was 1.05. A50U U81C U109C gave a self-cleavage of 0.86. U39A A136U A138G A141G showed a self-cleavage of 1.36. For A31U G35A U73A U115A, the self-cleavage was 1.19. In the case of A42G A77G U119C, the self-cleavage is reported as 2.92. A6G A22G A43U A79G gave a self-cleavage of 1.06. Variant U13C U46C G144A has a self-cleavage of 1.94. For U14C U39G U115C, the self-cleavage was 0. Variant A59U U62C U87C U134A has a self-cleavage of 0. For G7C U39A G72A, the self-cleavage was 1.74. In the case of U1A U119C U143C, the self-cleavage is reported as 1.81. In the case of U12A U119C A136G, the self-cleavage is reported as 2.04. Variant U26C G49C U115A U132C has a self-cleavage of 1.67. With G49U A69G A121G A142G the self-cleavage was 0.33. Variant U26C U45C A124U has a self-cleavage of 2.35. For G11A A31U G36C C68U G82A G114A A129G, the self-cleavage was 0.1. With A2G U20C U26G the self-cleavage was 0.36. Variant U13C G48A A136G has a self-cleavage of 1.12. U12G G32U A79U A92G gave a self-cleavage of 0.38. U12C A57U U62C A107G showed a self-cleavage of 0. Work on A77G A79G U104A A138U yielded a self-cleavage of 1.4. In the case of A22U A77G U132A, the self-cleavage is reported as 1.59. A31G G74A G93U gave a self-cleavage of 0.09. In the case of U29C U100C A141G, the self-cleavage is reported as 1.74. Work on U13C C51A G126A C145A yielded a self-cleavage of 1.38. A42G U73A A92U A94G C103A G114A A140G showed a self-cleavage of 0.16. In the case of A43G C103A U115A A140G, the self-cleavage is reported as 0.85. In the case of U1G A42G G72A A77U, the self-cleavage is reported as 0.48. Work on U20C U46A A124G G125U U130C yielded a self-cleavage of 2.45. Work on U5C A78G A94G G127U U134C yielded a self-cleavage of 0.84. Variant A43G C113U C131G A138G has a self-cleavage of 0.86. U15C U46A A64G U73C C123U A142G showed a self-cleavage of 0.36. U13C A43G U115C A142G showed a self-cleavage of 2.12. Variant U13C U45C A77G has a self-cleavage of 1.58. In the case of C18A A42G U47A C66A U102C U109C A136G, the self-cleavage is reported as 0.03. With U13C C18A A67G A77G A141G the self-cleavage was 0.44. U9C U12C U102C A136G showed a self-cleavage of 1.02. Variant U62C U104A A124G U134A U143A has a self-cleavage of 0. In the case of U20C U47A A79G U112C A121G U143A, the self-cleavage is reported as 1.02. For U73C U104A A117G, the self-cleavage was 0. For A42G U45C A129G U134C A140G, the self-cleavage was 2.3.
